We go through 55 molecules from paper PMC4336329 (PLoS ONE, 2015).

Structures are written as SMILES. Hit rate of the full screen: of about 310,000 compounds, about 14,000 (4.5%) showed an effect of 50% or more. Effects have a minus sign here. The list shows a part of the results.
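Note: peak tail current of the secondary pulse compared with the same well before compound.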

The test deals with human ether-à-go-go-related gene (hERG) potassium channel (human, UniProt Q12809). The test can be described thus: primary screen, population patch clamp on CHO cells stably expressing hERG.
human ether-à-go-go-related gene (hERG) potassium channel, sequence (Q12809 whole entry, looked up): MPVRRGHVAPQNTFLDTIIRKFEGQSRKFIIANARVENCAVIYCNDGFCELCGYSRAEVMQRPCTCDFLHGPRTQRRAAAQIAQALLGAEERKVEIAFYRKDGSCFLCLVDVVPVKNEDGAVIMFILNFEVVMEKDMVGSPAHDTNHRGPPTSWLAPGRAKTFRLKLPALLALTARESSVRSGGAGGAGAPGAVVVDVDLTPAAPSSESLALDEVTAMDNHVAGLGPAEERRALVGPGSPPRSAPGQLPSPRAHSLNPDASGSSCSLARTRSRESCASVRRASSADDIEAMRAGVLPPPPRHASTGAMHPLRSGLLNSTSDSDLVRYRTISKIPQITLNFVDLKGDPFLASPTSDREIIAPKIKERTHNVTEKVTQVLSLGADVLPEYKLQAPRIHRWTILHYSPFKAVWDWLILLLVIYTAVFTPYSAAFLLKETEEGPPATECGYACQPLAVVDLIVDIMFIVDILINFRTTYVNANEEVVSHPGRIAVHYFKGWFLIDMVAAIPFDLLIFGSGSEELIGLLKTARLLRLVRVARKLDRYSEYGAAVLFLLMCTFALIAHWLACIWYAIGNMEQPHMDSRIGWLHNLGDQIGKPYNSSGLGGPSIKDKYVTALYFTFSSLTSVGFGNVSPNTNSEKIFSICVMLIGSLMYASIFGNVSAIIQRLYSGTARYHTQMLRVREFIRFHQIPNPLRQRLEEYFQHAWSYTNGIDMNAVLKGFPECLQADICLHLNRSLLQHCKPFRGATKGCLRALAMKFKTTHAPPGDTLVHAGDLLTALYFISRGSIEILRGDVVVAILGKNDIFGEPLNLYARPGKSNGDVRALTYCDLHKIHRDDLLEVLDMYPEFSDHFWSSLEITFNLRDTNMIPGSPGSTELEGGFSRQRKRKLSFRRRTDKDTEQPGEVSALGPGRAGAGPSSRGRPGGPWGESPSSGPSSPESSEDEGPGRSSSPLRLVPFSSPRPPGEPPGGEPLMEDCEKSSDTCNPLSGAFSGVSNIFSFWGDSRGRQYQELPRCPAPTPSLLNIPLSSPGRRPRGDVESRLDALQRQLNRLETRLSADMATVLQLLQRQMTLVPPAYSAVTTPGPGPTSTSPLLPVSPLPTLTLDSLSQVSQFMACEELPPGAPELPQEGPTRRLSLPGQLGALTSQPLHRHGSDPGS
For the molecule `CCOc1ccc(Br)cc1S(=O)(=O)N1CCCN(C)CC1`, the “hERG current change (%, negative = inhibition) at 10uM” value is on record as -4.35%.

Regarding `CN(C(=O)COC(=O)CNC(=O)c1cccs1)c1c(N)n(Cc2ccccc2)c(=O)[nH]c1=O`, the “hERG current change (%, negative = inhibition) at 10uM” value stood at 1.05%.

On to `CCOc1ccccc1Nc1nc(N2CCCC2)nc(N2CCOCC2)n1`, for which the “hERG current change (%, negative = inhibition) at 10uM” value is listed as -2.63%.

On to `CC1CN(c2ncnc3c2c(-c2ccccc2)cn3-c2ccc(F)cc2)CC(C)O1` (stereo not shown), for which the “hERG current change (%, negative = inhibition) at 10uM” value was 12%.

On to `COC(=O)c1ccc(NCCc2csc(-c3ccc(C)cc3)n2)c([N+](=O)[O-])c1`, for which the “hERG current change (%, negative = inhibition) at 10uM” value is given as 1.66%.

As for `CCCOc1cc(C)c(S(=O)(=O)N2CCOCC2)cc1C`, the “hERG current change (%, negative = inhibition) at 10uM” value came out at 0.0182%.

`COc1cc(/C=C2\C(=O)NN(c3ccccc3)C2=O)cc([N+](=O)[O-])c1O`: the “hERG current change (%, negative = inhibition) at 10uM” value is 22%.

Take `CN1CCN(NC(=O)Nc2ccc([N+](=O)[O-])cc2)CC1`: the “hERG current change (%, negative = inhibition) at 10uM” value is recorded as -18.8%.

Take `CCOC(=O)[C@@H]1[C@H]2COc3ccccc3[C@H]2N2C(=O)N(c3ccccc3)C(=O)[C@]12C`: the “hERG current change (%, negative = inhibition) at 10uM” value was -9.02%.

Take `COc1cnc(-c2ccccc2)nc1Oc1cccc(C)c1`: the “hERG current change (%, negative = inhibition) at 10uM” value is -3.84%.

On to `CCn1nnc(NC(=O)COc2ccc([N+](=O)[O-])cc2)n1`, for which the “hERG current change (%, negative = inhibition) at 10uM” value is recorded as -13%.

With `COC(=O)c1cc2ccsc2n1CC(=O)Nc1cc(Cl)ccc1OC`, the “hERG current change (%, negative = inhibition) at 10uM” value is 6.58%.

For `COc1ccc(CCNC(=O)c2cc(-c3ccc(C)c(C)c3O)n[nH]2)cc1OC`, the “hERG current change (%, negative = inhibition) at 10uM” value is 14.7%.

As to `C=CCOC(=O)C1=C(C)NC(SC)=C(C#N)C1c1ccc(OCC)cc1` (stereo not shown), the “hERG current change (%, negative = inhibition) at 10uM” value is -12.6%.

Turning to `O=C(CCc1nc2ccccc2c(=O)[nH]1)Nc1nnc(SCc2ccc(F)cc2)s1`, the “hERG current change (%, negative = inhibition) at 10uM” value is on record as 7.47%.

`CC(=O)c1c(C)[nH]c(C(=O)N2CCCC(C)C2)c1C` (stereo not shown): the “hERG current change (%, negative = inhibition) at 10uM” value is 9.47%.

For the molecule `CCC(C)(c1nnnn1-c1c(C)cccc1C)N(N=O)c1ccccc1Cl` (stereo not shown), the “hERG current change (%, negative = inhibition) at 10uM” value is 11.9%.

As to `Cc1cccc(-c2nsc(SCC(=O)N3CCCC3)n2)c1`, the “hERG current change (%, negative = inhibition) at 10uM” value was -3.24%.

For the molecule `CC(C)c1cccc(C(C)C)c1NC(=O)CNCc1ccccc1F.O=C(O)C(=O)O`, the “hERG current change (%, negative = inhibition) at 10uM” value is listed as -18.9%.

As to `O=C(NC(Cc1c[nH]c2ccccc12)C(=O)N/N=C/c1cccnc1)c1cccs1` (stereo not shown), the “hERG current change (%, negative = inhibition) at 10uM” value is given as -7.7%.

Turning to `CSc1ccc(Cl)c(C(=O)N(C)CC(=O)Nc2ccc(N3CCOCC3)cc2)c1`, the “hERG current change (%, negative = inhibition) at 10uM” value is recorded as -0.854%.

As for `O=C(NCc1ccc(F)cc1)c1cc2ccccc2o1`, the “hERG current change (%, negative = inhibition) at 10uM” value is on record as -13.4%.

With `CC(CNC1CCCCC1)OC(=O)c1ccccc1.Cl` (stereo not shown), the “hERG current change (%, negative = inhibition) at 10uM” value is given as -8.12%.

`O=C(c1ccco1)N1CCN(C(=O)c2cc(Cl)nc3ccccc23)CC1`: the “hERG current change (%, negative = inhibition) at 10uM” value is listed as -35.2%.

`Nn1c(SCC(=O)Nc2ccc(F)cc2F)nnc1-c1cccnc1`: the “hERG current change (%, negative = inhibition) at 10uM” value came out at 17.8%.

Regarding `NNC(=O)c1csc(-c2ccc(C(F)(F)F)cc2Cl)n1`, the “hERG current change (%, negative = inhibition) at 10uM” value is -19.2%.

Turning to `CC(OC(=O)CNS(=O)(=O)c1ccc(C#N)cc1)C(=O)Nc1cccc(C#N)c1` (stereo not shown), the “hERG current change (%, negative = inhibition) at 10uM” value is reported as -27.7%.

Consider `Cc1ccc(C(=O)N2CCCC(Nc3ccc(F)cc3)C2)cc1C` (stereo not shown), for which the “hERG current change (%, negative = inhibition) at 10uM” value is given as 0.463%.

Regarding `COc1cccc(CN(C)CC(=O)Nc2cc3oc4ccccc4c3cc2OC)c1`, the “hERG current change (%, negative = inhibition) at 10uM” value is reported as 4.87%.

On to `CCCCN1C(=O)Nc2ccccc2S1(=O)=O`, for which the “hERG current change (%, negative = inhibition) at 10uM” value is given as -36.6%.

For `Cc1ccc(-n2c(C)cc(/C=N/NC(=O)c3ccncc3)c2C)cc1C`, the “hERG current change (%, negative = inhibition) at 10uM” value is 17.3%.

Regarding `COc1ccc(OC)c(NC(=S)Nc2ccccc2)c1`, the “hERG current change (%, negative = inhibition) at 10uM” value was found to be 18.7%.

For the molecule `O=C(COc1cccc(Oc2ccccc2)c1)Nc1ccc(SC(F)F)cc1`, the “hERG current change (%, negative = inhibition) at 10uM” value is listed as 9.13%.

Consider `CCN(CC(=O)Nc1cccc(S(=O)(=O)N(C)c2ccccc2)c1)Cc1ccccc1`, for which the “hERG current change (%, negative = inhibition) at 10uM” value was -21.7%.

For the molecule `COc1ccccc1NC(=O)c1cc2c(CO)cnc(C)c2oc1=Nc1cccc(C(N)=O)c1`, the “hERG current change (%, negative = inhibition) at 10uM” value came to 32.7%.

As for `COc1ccc(CSCC(=O)N/N=C/c2ccccc2O)cc1`, the “hERG current change (%, negative = inhibition) at 10uM” value stood at 2.06%.

`CC(C)Cn1c(SCC(=O)NCc2ccc(Cl)cc2)nnc1-c1cccc(S(=O)(=O)N2CCOCC2)c1`: the “hERG current change (%, negative = inhibition) at 10uM” value was -52.9%.

Turning to `Oc1ccc2ccccc2c1CNc1ccc(Br)cn1`, the “hERG current change (%, negative = inhibition) at 10uM” value is recorded as 16.7%.

As to `O=C(Nc1cnn(Cc2ccc(F)cc2)c1)c1cnccn1`, the “hERG current change (%, negative = inhibition) at 10uM” value is recorded as -3.09%.

For `CN(C)/C=N/c1c(C(=O)NCc2ccccc2)nnn1Cc1ccccc1`, the “hERG current change (%, negative = inhibition) at 10uM” value is -12.2%.

With `Cc1ccc(C(=O)N/N=C/c2ccoc2)cc1C`, the “hERG current change (%, negative = inhibition) at 10uM” value is given as -11%.

On to `CSCCCNC(=S)Nc1ccc(N2CCOCC2)cc1N1CCOCC1`, for which the “hERG current change (%, negative = inhibition) at 10uM” value is on record as -13.5%.

Turning to `Cc1ccccc1Cc1c(C)nc2c(C(=O)NCc3ccco3)cnn2c1C`, the “hERG current change (%, negative = inhibition) at 10uM” value is recorded as -49.2%.

For the molecule `Cc1noc(NS(=O)(=O)c2ccc(N/C=C/C(=O)c3ccc4c(c3)OCO4)cc2)c1C`, the “hERG current change (%, negative = inhibition) at 10uM” value is given as -0.795%.

As to `Cc1ccc(-n2ncc(N(C)C)c(Cl)c2=O)cc1`, the “hERG current change (%, negative = inhibition) at 10uM” value is recorded as -1.82%.

As for `CN1CCN(c2ccc(NC(=O)c3ccc(C(F)(F)F)cc3)cn2)CC1`, the “hERG current change (%, negative = inhibition) at 10uM” value is on record as -73.2%.

`Cn1cccc1/C=N/NC(=O)c1cccc(OC(F)(F)C(F)F)c1`: the “hERG current change (%, negative = inhibition) at 10uM” value was -14.9%.

As to `CC(CCc1ccco1)NC(=O)CCc1nnc2ccc(NCc3ccccc3Cl)nn12` (stereo not shown), the “hERG current change (%, negative = inhibition) at 10uM” value is recorded as 13.6%.

Consider `O=C(Nc1ccccc1C(F)(F)F)c1cc(-c2cccc(O)c2)on1`, for which the “hERG current change (%, negative = inhibition) at 10uM” value turned out to be 1.8%.

For the molecule `CN(C(=O)C1CCCN1S(=O)(=O)c1ccc(Cl)cc1)c1ccccc1` (stereo not shown), the “hERG current change (%, negative = inhibition) at 10uM” value is -24.1%.

For the molecule `Cc1cc(C(=O)C(=O)NC(C)C)c(C)n1-c1ccc([N+](=O)[O-])cc1`, the “hERG current change (%, negative = inhibition) at 10uM” value is reported as -22.8%.

As for `Cc1cccc(OCCNc2cc(N3CCN(C)CC3)ccc2[N+](=O)[O-])c1`, the “hERG current change (%, negative = inhibition) at 10uM” value is -20.1%.

In the case of `COc1ccc(Cc2nc3ccc(C(=O)N(C)CC4COCCO4)cc3o2)cc1` (stereo not shown), the “hERG current change (%, negative = inhibition) at 10uM” value is listed as -2.58%.

For the molecule `COc1ccc(CCC(=O)NCC23CC4CC(CC(C4)C2)C3)cc1`, the “hERG current change (%, negative = inhibition) at 10uM” value is -31.3%.

As to `COc1cccc(CN(CC(=O)NCc2ccc(F)cc2)C(=O)c2ccco2)c1`, the “hERG current change (%, negative = inhibition) at 10uM” value is on record as -39.2%.
